This is an account of results in paper PMC4336329 (PLoS ONE, 2015).

The whole screen tested about 310,000 compounds, of which about 14,000 (4.5%) showed an effect of 50% or more. Effects have a minus sign here. The list shows a part of the results.
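Further: peak tail current of the secondary pulse compared with the same well before compound.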

Chain of human ether-à-go-go-related gene (hERG) potassium channel (Q12809 whole entry, looked up): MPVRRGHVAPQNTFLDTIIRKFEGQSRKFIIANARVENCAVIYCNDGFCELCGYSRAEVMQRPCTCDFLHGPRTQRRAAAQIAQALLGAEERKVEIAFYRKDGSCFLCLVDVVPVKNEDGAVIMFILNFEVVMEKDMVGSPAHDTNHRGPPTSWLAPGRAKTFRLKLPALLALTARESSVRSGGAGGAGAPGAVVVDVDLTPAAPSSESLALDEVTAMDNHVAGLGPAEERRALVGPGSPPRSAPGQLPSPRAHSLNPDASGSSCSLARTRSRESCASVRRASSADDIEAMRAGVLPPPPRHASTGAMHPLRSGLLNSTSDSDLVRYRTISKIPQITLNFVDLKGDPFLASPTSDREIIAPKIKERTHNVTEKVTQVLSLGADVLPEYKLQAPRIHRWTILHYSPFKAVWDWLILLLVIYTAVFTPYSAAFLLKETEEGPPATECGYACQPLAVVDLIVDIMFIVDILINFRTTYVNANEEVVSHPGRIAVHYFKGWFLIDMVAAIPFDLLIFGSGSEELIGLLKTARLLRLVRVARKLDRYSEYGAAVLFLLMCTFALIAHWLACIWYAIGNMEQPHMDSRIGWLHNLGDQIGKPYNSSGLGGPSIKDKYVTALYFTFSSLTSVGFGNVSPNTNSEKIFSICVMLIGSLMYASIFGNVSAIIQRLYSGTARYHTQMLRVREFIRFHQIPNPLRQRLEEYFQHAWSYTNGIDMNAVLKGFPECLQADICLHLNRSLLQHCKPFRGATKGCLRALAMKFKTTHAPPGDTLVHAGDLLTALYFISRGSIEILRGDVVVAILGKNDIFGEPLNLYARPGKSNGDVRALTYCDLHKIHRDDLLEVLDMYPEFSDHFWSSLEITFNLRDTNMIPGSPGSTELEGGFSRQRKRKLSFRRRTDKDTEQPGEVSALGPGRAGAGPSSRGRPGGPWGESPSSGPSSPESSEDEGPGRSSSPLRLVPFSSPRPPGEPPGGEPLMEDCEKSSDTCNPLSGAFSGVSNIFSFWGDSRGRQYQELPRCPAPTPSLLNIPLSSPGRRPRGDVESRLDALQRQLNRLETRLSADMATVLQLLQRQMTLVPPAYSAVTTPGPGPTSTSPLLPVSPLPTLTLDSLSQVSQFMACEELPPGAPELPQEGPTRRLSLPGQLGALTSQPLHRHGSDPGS

This assay concerns the target human ether-à-go-go-related gene (hERG) potassium channel (human, UniProt Q12809). In words: primary screen, population patch clamp on CHO cells stably expressing hERG.
Consider `Cc1ccc(NC(=O)CSC2=NN3CCCC(=O)N=C3S2)cc1Cl`, for which the “hERG current change (%, negative = inhibition) at 10uM” value turned out to be 6.27%. Then `C/C(=N\NC(=O)CNC(=O)c1cccs1)c1ccc(Cl)c(Cl)c1`, with -2.25%; and `CCC(C)SCc1nc2ccccc2[nH]1` (stereo not shown), with -6.29%; and `CC(=O)c1ccc(S(=O)(=O)N2CCC(NC(=O)Nc3cccc(F)c3)CC2)cc1`, with 3.31%. For `CCNC(=O)C12CCC(C)(C(=O)O1)C2(C)C` (stereo not shown), the “hERG current change (%, negative = inhibition) at 10uM” value came to 2.38%.

As for `CCN(CC)C(=O)c1sc(NC(=O)c2ccc(Br)o2)c(C(=O)OC)c1C`, the “hERG current change (%, negative = inhibition) at 10uM” value was -6.13%.

Turning to `C#C[C@@]1(O)CCC2C3CCC4=C/C(=N/OCC(=O)NC(C(=O)NC(CC(C)C)C(=O)O)C(C)C)CC[C@]4(C)C3CC[C@@]21C` (stereo partly shown), the “hERG current change (%, negative = inhibition) at 10uM” value is given as -3.07%. In the case of `COc1ccc(CN(C)C(=O)c2ccc3ccccc3n2)cc1F` it was -24%. Then `O=C(c1ccccc1)c1ccc(OCC(O)CN2CCN(Cc3ccccc3)CC2)cc1` (stereo not shown), with -73.4%; and `Cc1cc(NC(=O)c2c(Cl)cccc2Cl)no1`, with 18.1%; and `COc1ccc(CCNC(=O)c2nnn(-c3cccc(C)c3)c2N)cc1OC`, with -38.8%. Then `COc1ccc(-c2noc(N3CCC(C(=O)Nc4ccc(OC)c(OC)c4)CC3)n2)cc1`, with -0.895%. Consider `O=C(CSc1nc(-c2ccccc2)cc(=O)[nH]1)Nc1ccccc1F`, for which the “hERG current change (%, negative = inhibition) at 10uM” value turned out to be 18.2%. In the case of `Cc1cc(=O)[nH]c(SCC(=O)Nc2nc3c(s2)CCCC3)n1` it was 0.634%.

As for `O=C(O)CN1C(=O)/C(=C\c2cccc(OCc3ccccc3)c2)SC1=S`, the “hERG current change (%, negative = inhibition) at 10uM” value is listed as 16.2%.

On to `Cl.O=C(CCN1CCc2ccccc2CC1)c1ccc2c(c1)OCCO2`, for which the “hERG current change (%, negative = inhibition) at 10uM” value is on record as -60.6%. Consider `O=S(=O)(/C=C/c1ccccc1)N1CCN(c2cccc(Cl)c2)CC1`, for which the “hERG current change (%, negative = inhibition) at 10uM” value was 3.17%. Regarding `O=C(CN(C(=O)c1csnn1)c1ccccc1F)NC1CCCCC1`, the “hERG current change (%, negative = inhibition) at 10uM” value is -9.52%. As to `O/N=C/CCn1c(=S)sc2ccccc21`, the “hERG current change (%, negative = inhibition) at 10uM” value is listed as -6.55%. Consider `Cc1ccccc1N1C(=O)N(c2cccc(C(F)(F)F)c2)C2CS(=O)(=O)CC21` (stereo not shown), for which the “hERG current change (%, negative = inhibition) at 10uM” value is -7.21%. In the case of `Cc1ccc(S(=O)(=O)NC(=O)Nc2ccc(C)cc2C)cc1` it was 13.6%; in that of `O=C(NNC(=S)NCC1CCCO1)c1cccc(S(=O)(=O)N2CCOCC2)c1` (stereo not shown), -15.2%. Then `CCOC(=O)c1nc(C)nc(Sc2n[nH]c(-c3cc(C(F)(F)F)cc(C(F)(F)F)c3)n2)c1C`, with -19.5%. In the case of `O=C(NCCOC(=O)c1c(F)cccc1Cl)c1c(F)cccc1Cl`, the “hERG current change (%, negative = inhibition) at 10uM” value amounted to 12.2%. Then `COCCCNC(=S)N/N=C/c1ccccc1O`, with 0.332%. Then `COc1ccc(S(=O)(=O)N2CCC(C(N)=O)(N3CCCCC3)CC2)cc1OC`, with -3.86%.

Turning to `COc1ccc(C2CC(=O)C=C(NCC3CCCO3)C2)cc1` (stereo not shown), the “hERG current change (%, negative = inhibition) at 10uM” value is on record as -9.1%. As to `Cc1ccc(NC(=O)C(C)N=C2NS(=O)(=O)c3ccccc32)cc1` (stereo not shown), the “hERG current change (%, negative = inhibition) at 10uM” value was 13%. Turning to `CC1CCCCN1C(=O)CSc1nc(-c2ccccc2)cc(=O)[nH]1` (stereo not shown), the “hERG current change (%, negative = inhibition) at 10uM” value was 1.27%.

As for `O=C(COc1ccc(Br)cc1)Nc1ccc(CN2CCOCC2)cc1`, the “hERG current change (%, negative = inhibition) at 10uM” value was -40.6%. Turning to `CC1(C(=O)N2CC3(CC(c4cccc(NC(=O)CC(c5ccccc5)c5ccccc5)c4)=NO3)C[C@@H]2C(N)=O)CC1` (stereo partly shown), the “hERG current change (%, negative = inhibition) at 10uM” value was 4.05%. Consider `COc1ccc(OC)c(C2=NOC(C(=O)N3CCCc4ccccc43)C2)c1` (stereo not shown), for which the “hERG current change (%, negative = inhibition) at 10uM” value is on record as -13.3%.

On to `Cc1ccc(O)c(-c2cc(C(F)(F)C(F)F)[nH]n2)c1`, for which the “hERG current change (%, negative = inhibition) at 10uM” value is given as -9.91%. Then `COc1ccc(-n2ncc3c2CC(C)(C)CC3NC(=O)CCCN2CCCC2=O)cc1` (stereo not shown), with 4.49%; and `COCCCNC(=O)c1ccc2c(c1)OCO2`, with -9.98%; and `CCn1c(SCC(=O)N(C)C2CCS(=O)(=O)C2)nnc1-c1cccs1` (stereo not shown), with 15.2%.

`CCOc1ncccc1C(=O)OCC(=O)NC(=O)NC(C)C`: the “hERG current change (%, negative = inhibition) at 10uM” value worked out at 39.9%. Take `Cc1ccc(N(Cc2ccccc2)C(=O)c2ccc(F)cc2)cc1`: the “hERG current change (%, negative = inhibition) at 10uM” value was -3.14%. Then `CCC(C)c1ccc(C(C)NC(=S)NC2CCCCC2)cc1` (stereo not shown), with 23.6%; and `COc1ccc(Nc2nnc(-c3ccc(C(N)=O)cc3)c3ccccc23)cc1`, with -33.9%; and `CCC(C)(C(=O)NC1CCCCC1)N(Cc1cccs1)C(=O)c1ccc(=O)[nH]c1` (stereo not shown), with 1.83%.

Consider `O=C(/C=C/NNC(=O)c1cccc(Br)c1)c1ccccc1`, for which the “hERG current change (%, negative = inhibition) at 10uM” value is on record as 5.7%.

On to `CC1CCN(c2ccc(NC(=S)NC(=O)c3ccc(-c4cccc([N+](=O)[O-])c4)o3)cc2)CC1`, for which the “hERG current change (%, negative = inhibition) at 10uM” value stood at 2.99%.

On to `CN(C)c1ccc(N=Nc2ccccc2C(=O)OCC(=O)N2CCCC2)cc1`, for which the “hERG current change (%, negative = inhibition) at 10uM” value was -1.01%. With `CCO/C=C/C(=O)N(C)CCC#N`, the “hERG current change (%, negative = inhibition) at 10uM” value is on record as -0.874%.

For the molecule `COc1cc(C(=O)c2ccccc2)c([N+](=O)[O-])cc1OC`, the “hERG current change (%, negative = inhibition) at 10uM” value was -2.35%. In the case of `Cc1cccc2cc3c(NC(=O)C(C)(C)C)nn(CC(C)C)c3nc12` it was 10.8%; in that of `CCC(=O)c1ccccc1OCCCN1C(=O)NC(C)(C)C1=O`, 0.00578%; in that of `Cc1onc(-c2ccccc2)c1C(=O)Nc1nnc(COc2ccc(Cl)cc2)s1`, 10.5%. Consider `CCN(CC)c1ccc(N)cc1`, for which the “hERG current change (%, negative = inhibition) at 10uM” value stood at 13.4%.

With `CCOC(=O)C1CCN(C(=O)c2ccc(N(C)S(C)(=O)=O)cc2)CC1`, the “hERG current change (%, negative = inhibition) at 10uM” value was 1.51%.

Turning to `CCOC(=O)c1[nH]c2ccc(C)cc2c1NC(=O)CN1CCCCC1`, the “hERG current change (%, negative = inhibition) at 10uM” value is recorded as -17.6%. `O=C(CSc1cccc(C(F)(F)F)c1)Nc1cc(S(=O)(=O)N2CCCC2)ccc1Cl`: the “hERG current change (%, negative = inhibition) at 10uM” value is reported as -5.28%. In the case of `COc1ccc(NC(=O)c2ccc(-n3c(C)ccc3C)cc2)c(OC)c1` it was -24.3%; in that of `COc1ccc(OC)c(S(=O)(=O)CC(=O)c2cc3ccc(OC)cc3oc2=O)c1`, 8.24%; in that of `Cl.O=S(=O)(NCCN1CCOCC1)c1ccc(Cl)c(Cl)c1`, 0.4%. For the molecule `COc1ccc2cc3cc(C(=O)Nc4ccc5c(c4)OCCO5)oc3nc2c1`, the “hERG current change (%, negative = inhibition) at 10uM” value is given as -2.07%. As to `CC1=NN(c2ccccc2)C(=O)C1c1ccccc1` (stereo not shown), the “hERG current change (%, negative = inhibition) at 10uM” value was 4.26%. In the case of `CCNC(=O)CSc1nc(-c2ccc(F)cc2)cs1` it was 21.2%.

With `Cc1ccc(C(=O)Nc2nc(-c3ccccn3)cs2)o1`, the “hERG current change (%, negative = inhibition) at 10uM” value is given as -40.4%. In the case of `O=C(COC(=O)CNC(=O)c1ccccc1F)NCCC1=CCCCC1` it was 3.37%; in that of `COc1ccc(C2SCC(C(=O)NCc3ccc(F)cc3)N2C(C)=O)cc1` (stereo not shown), -20.2%; in that of `COc1ccc(N2C(=O)C3C(C2=O)C3(c2ccccc2)c2ccccc2)cc1` (stereo not shown), 0.0654%. Consider `COc1cccc(C(=O)NC2CC(C)(C)Cc3c2cnn3-c2cccc(F)c2)c1OC` (stereo not shown), for which the “hERG current change (%, negative = inhibition) at 10uM” value is listed as -52.3%. Consider `CCOC(=O)C1CCN(C(=O)c2cc(S(=O)(=O)N3CCOCC3)ccc2C)CC1`, for which the “hERG current change (%, negative = inhibition) at 10uM” value is given as 1.3%. On to `O=S(=O)(c1cccs1)N1CN(Cc2ccc(F)cc2)c2nc3ccccc3nc21`, for which the “hERG current change (%, negative = inhibition) at 10uM” value was -5.12%. In the case of `Cc1nc(/N=C(\N)NC(=O)N2c3ccccc3Sc3ccccc32)nc2ccccc12` it was 8.13%; in that of `Cc1ccn(-c2ccc([N+](=O)[O-])cc2)n1`, 0.314%. In the case of `CC1(C)CC(=O)/C(=C(\O)CCCN2C(=O)c3ccccc3C2=O)C(=NCC(=O)O)C1` it was 15.3%.

Turning to `COc1cc([N+](=O)[O-])ccc1NC(=O)NCc1cccnc1`, the “hERG current change (%, negative = inhibition) at 10uM” value is given as -26.5%. Take `O=C(Nc1ccc2c(c1)CCCN2C(=O)c1cccs1)c1cccc(F)c1`: the “hERG current change (%, negative = inhibition) at 10uM” value came out at 10.3%.

In the case of `O=C(Cn1cc(S(=O)(=O)Cc2cccc(F)c2)c2ccccc21)N1CCOCC1`, the “hERG current change (%, negative = inhibition) at 10uM” value was -7.62%. In the case of `O=C(COc1ccc2c(c1)OCO2)NC12CC3CC(CC(C3)C1)C2` it was -15.5%; in that of `CCOC(=O)Cn1cc(/C=C/[N+](=O)[O-])c2ccccc21`, -3.66%. Then `O=C(C1Cc2ccccc2O1)N1CCCCC1` (stereo not shown), with -8.57%. Then `CC(Sc1nnc(C(C)Oc2ccccc2F)o1)C(=O)NCc1ccc2c(c1)OCO2` (stereo not shown), with -41.5%; and `O=C(c1cc(-c2ccc(O)cc2)on1)N1CCOCC1`, with -6.82%. As for `CCCCNC(=O)CC1N=C2c3ccccc3N=C(SCC(=O)Nc3ccc(OC)cc3)N2C1=O` (stereo not shown), the “hERG current change (%, negative = inhibition) at 10uM” value is given as -13.1%. Then `COc1cccc(CN(C)C(=O)c2cc(S(=O)(=O)N3CCCCCC3)ccc2OC)c1`, with -39%; and `COc1ccc(Cl)cc1NC(=O)NCCCl`, with 10.5%.

As for `COc1ccc2ccccc2c1C1CC(=O)N2CN(C)CSC2=C1C#N` (stereo not shown), the “hERG current change (%, negative = inhibition) at 10uM” value stood at 12.7%. Take `CCOc1ccc(NC(=S)N(CCN2CCOCC2)Cc2cc3cc4c(cc3[nH]c2=O)OCCO4)cc1`: the “hERG current change (%, negative = inhibition) at 10uM” value is -5.12%. Then `O=C1CC(c2ccc(Cl)cc2)n2nc(N3C(=O)c4ccccc4C3=O)nc2N1` (stereo not shown), with -3.13%; and `COc1ccc(/C=N/Nc2cc(C)nc(-n3nc(C)cc3C)n2)cc1`, with -4.01%.

In the case of `COc1ccccc1CC(=O)NNC(=O)c1ccco1`, the “hERG current change (%, negative = inhibition) at 10uM” value was determined as 16%. As to `CCC(=O)N1CC(=O)Nc2ccc(F)cc2C1c1ccc(F)cc1` (stereo not shown), the “hERG current change (%, negative = inhibition) at 10uM” value is reported as 5.29%.

Take `CCOC(=O)c1c(NC(=O)C[n+]2ccccc2)sc2c1CCCC2.[Cl-]`: the “hERG current change (%, negative = inhibition) at 10uM” value was 14.2%. For `Cc1ccc2cc3c(nc2c1)N(Cc1ccco1)CC3`, the “hERG current change (%, negative = inhibition) at 10uM” value is on record as -3.13%.
